Data: patent US11000038B2, “Pyridone compounds and agricultural and horticultural fungicides containing the same as active ingredients” (priority 2017, dated 2021)

Tests used:
[1] = test system: cabbage Alternaria sooty spot fungi (Alternaia brassicicola); assay: Test Example C: cabbage Alternaria sooty spot, spray treatment of cabbage plants; format: in vivo; conditions: cabbage Alternaria sooty spot, spray treatment of cabbage plants
Text: [Test Example C] Cabbage Alternaria Sooty Spot
Test plants (cabbage variety: Shikidori) were cultivated until the cotyledons extended after the sowing of seeds.
<Control Value> Control value=100{1−(n/3)}

[2] = test system: wheat brown rust fungi (Puccinia recondita); assay: Test Example E: wheat brown rust, spray treatment of wheat plants; format: in vivo; conditions: wheat brown rust, spray treatment of wheat plants
[3] = test system: gray mold fungi (Botrytis cinerea); assay: Test Example B: tomato gray mold, spray treatment of tomato plants; conditions: tomato gray mold, spray treatment of tomato plants
[4] = test system: grape downy mildew fungus (Plasmopara viticola); assay: Test Example G: grape downy mildew, spray treatment of grape plants; conditions: grape downy mildew, 250 ppm spray (2.5 ml/pot), 7 to 10 days after inoculation
[5] = test system: barley powdery mildew fungi (Blumeria graminis f. sp. hordei); assay: Test Example D: barley powdery mildew, spray treatment of barley plants; conditions: barley powdery mildew, spray treatment of barley plants

Row | Structure (SMILES) | Test C control value [1] | Test E control value [2] | Test B control value [3] | Test G control value [4] | Test D control value [5]
1 | Cc1ccc(C(F)(F)F)cc1-n1cc(Br)c(=O)c(Cl)c1-c1c(F)cc(F)cc1F [Compound 309] | H (H shows the control value of more than 50%) | H (H shows the control value of more than 50%) | H (H shows the control value of more than 50%) | L (L shows the control value of 50% or less) | L (L shows the control value of 50% or less)
2 | Cc1ccc(C(F)(F)F)cc1-n1cc(Br)c(=O)c(Br)c1-c1c(F)cc(F)cc1F [Compound 310] | L (L shows the control value of 50% or less) | H (H shows the control value of more than 50%) | H (H shows the control value of more than 50%) | L (L shows the control value of 50% or less) | L (L shows the control value of 50% or less)
3 | CCc1c(-c2c(F)cc(OC)cc2F)n(-c2ccccc2C)cc(C)c1=O [Compound 311] | H (H shows the control value of more than 50%) | H (H shows the control value of more than 50%) | H (H shows the control value of more than 50%) | H (H shows the control value of more than 50%) | H (H shows the control value of more than 50%)
4 | CCc1c(-c2c(F)cc(F)cc2F)n(-c2ccccc2C)cc(C(F)(F)F)c1=O [Compound 312] | H (H shows the control value of more than 50%) | H (H shows the control value of more than 50%) | H (H shows the control value of more than 50%) | L (L shows the control value of 50% or less) | H (H shows the control value of more than 50%)
5 | COc1ccc(C)c(-n2cc(C)c(=O)c(C)c2-c2c(F)cc(F)cc2F)c1 [Compound 313] | H (H shows the control value of more than 50%) | H (H shows the control value of more than 50%) | H (H shows the control value of more than 50%) | H (H shows the control value of more than 50%) | H (H shows the control value of more than 50%)
6 | Cc1ccc(O)cc1-n1cc(C)c(=O)c(C)c1-c1c(F)cc(F)cc1F [Compound 314] | H (H shows the control value of more than 50%) | H (H shows the control value of more than 50%) | H (H shows the control value of more than 50%) | H (H shows the control value of more than 50%) | H (H shows the control value of more than 50%)
7 | COCCOc1ccc(C)c(-n2cc(C)c(=O)c(C)c2-c2c(F)cc(F)cc2F)c1 [Compound 315] | H (H shows the control value of more than 50%) | H (H shows the control value of more than 50%) | H (H shows the control value of more than 50%) | L (L shows the control value of 50% or less) | H (H shows the control value of more than 50%)
8 | COCCOc1ccc(C)c(-n2cc(C)c(=O)c(C)c2-c2c(F)cc(OC)cc2F)c1 [Compound 316] | H (H shows the control value of more than 50%) | H (H shows the control value of more than 50%) | H (H shows the control value of more than 50%) | L (L shows the control value of 50% or less) | H (H shows the control value of more than 50%)
9 | CCc1cn(-c2ccccc2C)c(-c2c(F)cc(F)cc2F)c(CC)c1=O [Compound 317] | H (H shows the control value of more than 50%) | H (H shows the control value of more than 50%) | H (H shows the control value of more than 50%) | H (H shows the control value of more than 50%) | H (H shows the control value of more than 50%)
